# Measured values taken from the supplement of paper PMC8728848.
# The other results are listed elsewhere or left out.
# B1: DCAL1 (Homo sapiens), Q8IZS7 (protein)
# chain: MVSNFFHVIQVFEKSATLISKTEHIGFVIYSWRKSTTHLGSRRKFAISIYLSEVSLQKYDCPFSGTSFVVFSLFLICAMAGDVVYADIKTVRTSPLELAFPLQRSVSFNFSTVHKSCPAKDWKVHKGKCYWIAETKKSWNKSQNDCAINNSYLMVIQDITAMVRFNI
# Columns and labels:
# Assay in all cases: glycan array binding signal (z-score within array); higher = stronger binding
# Conditions in all cases: glycan notation: IUPAC condensed, linker removed
# Gal4S6S(b1-4)GlcNAc = target: Gal4S6S(b1-4)GlcNAc
# How it was run: (§1)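 The binding signal is a Z-score computed within each array. Data were drawn from 3228 arrays in the Consortium for Functional Glycomics database, restricted to those with a known protein sequence. Scores were averaged over arrays of the same protein sequence at different concentrations or buffers, and over linkers, and negative values can be taken as non-binding.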
# Gal6S(b1-4)Glc = target: Gal6S(b1-4)Glc
# How it was run: as §1
# Gal6S(b1-4)Glc6S = target: Gal6S(b1-4)Glc6S
# How it was run: as §1
# Gal6S(b1-4)GlcNAc = target: Gal6S(b1-4)GlcNAc
# How it was run: as §1
# GalNAc(a1-3)Gal = target: GalNAc(a1-3)Gal
# How it was run: as §1
# GalNAc(a1-3)GalNAc = target: GalNAc(a1-3)GalNAc
# How it was run: as §1
# [1] = target: GalNAc(b1-3)Gal(a1-4)Gal(b1-4)GlcNAc
# How it was run: as §1
# GalNAc(b1-3)GalNAc = target: GalNAc(b1-3)GalNAc
# How it was run: as §1
# GalNAc(b1-4)GlcNAc = target: GalNAc(b1-4)GlcNAc
# How it was run: as §1
# Glc(a1-4)Glc = target: Glc(a1-4)Glc
# How it was run: as §1
# Glc(a1-6)Glc(a1-6)Glc = target: Glc(a1-6)Glc(a1-6)Glc
# How it was run: as §1
# Glc(b1-4)Glc = target: Glc(b1-4)Glc
# How it was run: as §1
# Glc(b1-6)Glc = target: Glc(b1-6)Glc
# How it was run: as §1
# GlcA(b1-3)Gal = target: GlcA(b1-3)Gal
# How it was run: as §1
# GlcA(b1-6)Gal = target: GlcA(b1-6)Gal
# How it was run: as §1
# [2] = target: GlcNAc(a1-3)Gal(b1-4)GlcNAc
# How it was run: as §1
# [3] = target: GlcNAc(a1-6)Gal(b1-4)GlcNAc
# How it was run: as §1
# [4] = target: GlcNAc(b1-2)Gal(b1-3)GalNAc
# How it was run: as §1
# [5] = target: GlcNAc(b1-2)Man(a1-3)[GlcNAc(b1-2)Man(a1-6)]Man(b1-4)GlcNAc(b1-4)GlcNAc
# How it was run: as §1
# GlcNAc(b1-3)Gal = target: GlcNAc(b1-3)Gal
# How it was run: as §1
# [6] = target: GlcNAc(b1-3)Gal(b1-3)GalNAc
# How it was run: as §1
# GlcNAc(b1-3)Gal(b1-4)Glc = target: GlcNAc(b1-3)Gal(b1-4)Glc
# How it was run: as §1
# [7] = target: GlcNAc(b1-3)Gal(b1-4)GlcNAc
# How it was run: as §1
# [8] = target: GlcNAc(b1-3)Gal(b1-4)GlcNAc(b1-3)Gal(b1-4)GlcNAc
# How it was run: as §1
# GlcNAc(b1-3)GalNAc = target: GlcNAc(b1-3)GalNAc
# How it was run: as §1
# [9] = target: GlcNAc(b1-3)[GlcNAc(b1-6)]Gal(b1-4)GlcNAc
# How it was run: as §1
# [10] = target: GlcNAc(b1-3)[GlcNAc(b1-6)]GalNAc
# How it was run: as §1
# [11] = target: GlcNAc(b1-3)[GlcNAc(b1-6)]GlcNAc(b1-4)GlcNAc
# How it was run: as §1
# [12] = target: GlcNAc(b1-4)Gal(b1-4)GlcNAc
# How it was run: as §1
# [13] = target: GlcNAc(b1-4)GlcNAc(b1-4)GlcNAc
# How it was run: as §1
# [14] = target: GlcNAc(b1-4)GlcNAc(b1-4)GlcNAc(b1-4)GlcNAc(b1-4)GlcNAc
# How it was run: as §1
# [15] = target: GlcNAc(b1-4)GlcNAc(b1-4)GlcNAc(b1-4)GlcNAc(b1-4)GlcNAc(b1-4)GlcNAc
# How it was run: as §1
# [16] = target: GlcNAc(b1-4)[GlcNAc(b1-6)]GalNAc
# How it was run: as §1
# [17] = target: GlcNAc(b1-6)Gal(b1-4)GlcNAc
# How it was run: as §1
# GlcNAc(b1-6)GalNAc = target: GlcNAc(b1-6)GalNAc
# How it was run: as §1
# Kdn(a2-3)Gal(b1-3)GlcNAc = target: Kdn(a2-3)Gal(b1-3)GlcNAc
# How it was run: as §1
# Kdn(a2-3)Gal(b1-4)GlcNAc = target: Kdn(a2-3)Gal(b1-4)GlcNAc
# How it was run: as §1
# [18] = target: Man(a1-2)Man(a1-2)Man(a1-3)Man
# How it was run: as §1
# [19] = target: Man(a1-2)Man(a1-2)Man(a1-6)[Man(a1-3)]Man
# How it was run: as §1
# Man(a1-2)Man(a1-3)Man = target: Man(a1-2)Man(a1-3)Man
# How it was run: as §1
# [20] = target: Man(a1-2)Man(a1-3)[Man(a1-2)Man(a1-6)]Man
# How it was run: as §1
# [21] = target: Man(a1-2)Man(a1-3)[Man(a1-2)Man(a1-6)]Man(a1-6)[Man(a1-2)Man(a1-2)Man(a1-3)]Man(b1-4)GlcNAc(b1-4)GlcNAc
# How it was run: as §1
# [22] = target: Man(a1-2)Man(a1-3)[Man(a1-6)]Man(a1-6)[Man(a1-2)Man(a1-3)]Man(b1-4)GlcNAc(b1-4)GlcNAc
# How it was run: as §1
# [23] = target: Man(a1-2)Man(a1-6)[Man(a1-3)]Man(a1-6)[Man(a1-2)Man(a1-2)Man(a1-3)]Man(b1-4)GlcNAc(b1-4)GlcNAc
# How it was run: as §1
# Man(a1-3)[Man(a1-6)]Man = target: Man(a1-3)[Man(a1-6)]Man
# How it was run: as §1
binder,measurement,setting,value
B1,glycan array binding signal (z-score),Gal4S6S(b1-4)GlcNAc,0.371
same,glycan array binding signal (z-score),Gal6S(b1-4)Glc,-0.255
same,glycan array binding signal (z-score),Gal6S(b1-4)Glc6S,-0.044
same,glycan array binding signal (z-score),Gal6S(b1-4)GlcNAc,-0.188
same,glycan array binding signal (z-score),GalNAc(a1-3)Gal,-0.202
same,glycan array binding signal (z-score),GalNAc(a1-3)GalNAc,-0.268
same,glycan array binding signal (z-score),[1],-0.276
same,glycan array binding signal (z-score),GalNAc(b1-3)GalNAc,-0.304
same,glycan array binding signal (z-score),GalNAc(b1-4)GlcNAc,-0.166
same,glycan array binding signal (z-score),Glc(a1-4)Glc,0.023
same,glycan array binding signal (z-score),Glc(a1-6)Glc(a1-6)Glc,-0.234
same,glycan array binding signal (z-score),Glc(b1-4)Glc,-0.149
same,glycan array binding signal (z-score),Glc(b1-6)Glc,-0.198
same,glycan array binding signal (z-score),GlcA(b1-3)Gal,-0.229
same,glycan array binding signal (z-score),GlcA(b1-6)Gal,-0.17
same,glycan array binding signal (z-score),[2],-0.254
same,glycan array binding signal (z-score),[3],-0.057
same,glycan array binding signal (z-score),[4],-0.121
same,glycan array binding signal (z-score),[5],-0.076
same,glycan array binding signal (z-score),GlcNAc(b1-3)Gal,-0.259
same,glycan array binding signal (z-score),[6],-0.239
same,glycan array binding signal (z-score),GlcNAc(b1-3)Gal(b1-4)Glc,-0.236
same,glycan array binding signal (z-score),[7],-0.025
same,glycan array binding signal (z-score),[8],-0.28
same,glycan array binding signal (z-score),GlcNAc(b1-3)GalNAc,-0.293
same,glycan array binding signal (z-score),[9],-0.271
same,glycan array binding signal (z-score),[10],-0.285
same,glycan array binding signal (z-score),[11],-0.148
same,glycan array binding signal (z-score),[12],-0.196
same,glycan array binding signal (z-score),[13],-0.272
same,glycan array binding signal (z-score),[14],-0.233
same,glycan array binding signal (z-score),[15],-0.265
same,glycan array binding signal (z-score),[16],-0.276
same,glycan array binding signal (z-score),[17],-0.208
same,glycan array binding signal (z-score),GlcNAc(b1-6)GalNAc,-0.235
same,glycan array binding signal (z-score),Kdn(a2-3)Gal(b1-3)GlcNAc,-0.183
same,glycan array binding signal (z-score),Kdn(a2-3)Gal(b1-4)GlcNAc,-0.198
same,glycan array binding signal (z-score),[18],-0.079
same,glycan array binding signal (z-score),[19],-0.251
same,glycan array binding signal (z-score),Man(a1-2)Man(a1-3)Man,-0.228
same,glycan array binding signal (z-score),[20],-0.154
same,glycan array binding signal (z-score),[21],5.03
same,glycan array binding signal (z-score),[22],0.005
same,glycan array binding signal (z-score),[23],-0.215
same,glycan array binding signal (z-score),Man(a1-3)[Man(a1-6)]Man,-0.223
